Some of the results follow.
Tested on: S. aureus RN4220
Experiment: growth inhibition call (relative growth <= 0.2)
Conditions: 50 µM

Compound	growth inhibition call
CCc1cc(=O)oc2cc(O[C@@H](C)C(=O)N[C@@H](CCCNC(=N)N)C(=O)O)ccc12	inactive
C[C@H](CO)N1C[C@H](C)[C@H](CN(C)S(=O)(=O)c2cccs2)Oc2c(NS(=O)(=O)c3cccs3)cccc2C1=O	inactive
Cc1ccc(-c2cnc3c(c2)C(=O)N([C@@H](C)CO)C[C@@H](C)[C@H](CN(C)C(=O)Cc2cccnc2)O3)cc1	inactive
CC1(C)S[C@@H]2[C@H](NC(=O)[C@H](NC(=O)N3CCNC3=O)c3ccccc3)C(=O)N2[C@H]1C(=O)O	inactive
COc1ccccc1C#Cc1cnc2c(c1)C(=O)N([C@H](C)CO)C[C@H](C)[C@H](CN(C)C(=O)CC1CC1)O2	inactive
C[C@H](CO)N1C[C@H](C)[C@H](CN(C)S(=O)(=O)c2cccs2)OCCCC[C@H](C)Oc2ccc(NC(=O)Cc3ccccc3)cc2C1=O	inactive
COc1ccc2c3c(n(c2c1)C)[C@H](CO)N(C[C@]13CN(C1)C(=O)Cc1ccccc1)C(=O)c1ccccn1	inactive
C[C@H](CO)N1C[C@H](C)[C@@H](CN(C)Cc2ccc(-c3ccccc3)cc2)Oc2c(NC(=O)CCCCCC(=O)Nc3ccccc3N)cccc2C1=O	inactive
C[C@H](CO)N1C[C@H](C)[C@@H](CN(C)C(=O)Nc2cccc3ccccc23)Oc2c(NS(=O)(=O)c3ccccc3)cccc2C1=O	inactive
CCNC(=O)C[C@H]1C=C[C@H](NC(=O)C2CC2)[C@@H](CO)O1	inactive
CNC[C@@H]1OCCCC[C@H](C)Oc2ccc(NS(=O)(=O)c3cn(C)cn3)cc2C(=O)N([C@H](C)CO)C[C@@H]1C	inactive
C[C@@H]1CCCCO[C@H](CN(C)S(=O)(=O)c2cn(C)cn2)[C@H](C)CN([C@H](C)CO)C(=O)c2cc(NS(C)(=O)=O)ccc2O1	inactive
C[C@@H]1CCCCO[C@@H](CN(C)C(=O)Nc2ccccc2)[C@@H](C)CN([C@H](C)CO)C(=O)c2cc(NC(=O)c3ccccc3)ccc2O1	inactive
C[C@@H]1CCCCO[C@H](CN(C)CC2CCCCC2)[C@@H](C)CN([C@H](C)CO)C(=O)c2cc(NC(=O)NC3CCCCC3)ccc2O1	inactive
Cc1ccc(C(=O)N(CCCN)[C@@H](c2nc3cc(Cl)ccc3c(=O)n2Cc2ccccc2)C(C)C)cc1	active
C[C@@H]1CN([C@H](C)CO)C(=O)CCCn2cc(nn2)CO[C@@H]1CN(C)S(=O)(=O)c1cccc(C#N)c1	inactive
CN1CCN(C(=O)C[C@H]2C=C[C@H](NC(=O)Nc3ccccc3F)[C@H](CO)O2)CC1	inactive
C[C@H](CO)N1C[C@H](C)[C@H](CN(C)Cc2ccc(Cl)c(Cl)c2)Oc2ccc(NC(=O)CCC(F)(F)F)cc2C1=O	inactive

From the antibiotic and cytotoxicity screens of Wong et al. (2023)
